Test results as given in the RNAGym collection of RNA variant scans (doi:10.7554/elife.90254).
Read counts are not given, so values of variants with three or more changes are uncertain.

B1: OR4K15 (parent)
chain: GUUAACGGUCAUAGGCCAUGGAAACUAGGAGCACCAUUUCGCUGCCAGUGAAGAAAUGAACAAAGAAAAUCUGGGCCAGGCAGGCAUCAAAAGAAAUAGUCUUGCGCUCAACCAGAAAGUCUGUAAUCAUUUUAAGGGUA

Variants of: B1
Assay: self-cleavage, relative activity (ratio to wild type); higher = more cleavage; in vitro, sequencing; the parent is a self-cleaving ribozyme

Variant | self-cleavage
A60G G73A A111G | 0.03
A59G G65A C121A | 2.42
A59G A66G A110U A114U | 0.01
U57C A66G U124A | 0.77
A59G U108C U122A | 0.01
A59G G79A A114G A140G | 0.04
U57G U103C A118U | 0.15
C61U A64U A82G | 0.6
A60G A68U U127C A140G | 1.1
A59G A68G A89G | 1.08
U57C U72C A116G | 0.11
A56G A118G U124A U131A | 0.18
A60U U102A C105U | 0.11
U57A C71A U87C U97A U102C U130C G136U | 0.09
A56G A82G U87C U131A | 0.54
A56G A118G A135G | 1.09
U57G A82C U122A | 0.04
A56G G84A A98U | 2.27
A56G A82C A111G A118G | 0.01
A60G A66U U130C | 0.88
A59G A78G A82U A111G | 0.01
U57A A78G A98G | 0.09
A60G G80A A140G | 0.3
A56G A95C A117G | 1.45

Variant | self-cleavage
U57A G75C A96G A98G U102C A116G U131C A140G | 0.02
U57C A86G A126G | 0.8
U57C A62G A64U | 0.62
U57C A64U U72A A110G U122C | 0.01
U57C C107U A140G | 0.01
A59G A62U U72A U102A | 0.08
U57A A89G U130C | 1.06
G58U A95G C101U U120C | 0.26
A59G A62G A126G U127C U132C | 0.75
A59G U70C A82U A90G A111G | 0.01
A56G U87A U108C | 0
U57G U87C U124C | 0.63
A60U G74A A125G | 0.03
A56G U72G U87C U103C A129G | 0.04
A60U U72A A96G A111G | 0.04
A60G A63G U103C G106A | 0.02
A60G U72C U122C | 0.08
A60C U72C A116G | 0.17
A56G U124C A140G | 0.36
A60G A78G U103C A116G | 0.04
A59G C88U U108C | 0
U57C U108C A110G | 0
A59G A66G C71A A78G A96C | 0.13
A60G A86U C105U C121A | 0.45

Variant | self-cleavage
A60U A62G U70C A94G A117G | 1.78
A56G G79A U108C | 0.01
A60C U122C A129G | 1.06
A59G U70C U108C U120C | 0
A60U A64G A125G A140G | 1.24
A59G A63U U72C A86G | 0.19
A59G G73A U108C | 0.01
A56G A82G U108C | 0
A59G A60U U100C C113U U122C | 0.03
A60G A86U A92G A95G A110G A116G | 0.08
A59G A60U A62G U72A | 0.38
A56U A66U U124C | 0.36
A60G U120C A134G | 0.48
A59G A69G A78G G83A | 0.34
A60G A67G A90G U131C | 0.2
U57C A63G A90G C113A | 0.01
A60G A68C A95G | 1.82
U57C A86G A116G A126G | 0.5
A59G A64G A66G U97C | 0.4
U57A A66U A82G A116G | 0
A60G U72C A78U A114U | 0.01
A59G A67U A111U | 0.28
A59G C101U U102C U130C | 1.06
A62C A64G A110G | 0.2

Variant | self-cleavage
A60G A110G A118U | 0.06
A56G U127C A140C | 1.24
A56G U127C A140G | 0.31
U57C A95G A114G | 0.41
U57C A114G U130A | 0.1
A60G U120A U132C | 1.08
A59G A66G U131C | 1.44
A59U U102C A116G | 1.65
U57A A90G U122C | 0.51
A59G A126G A140U | 1.3
A59U A60G A68G | 1.82
A59G A116U U139C | 0.11
A59G U100A A111G C121U | 0.01
A56G A91G A114G | 0.31
A56G A78U A140G | 0.39
A60G A64G A114G | 0.34
A56G A69U A116G | 0.73
G58A C77U A82G A116G | 0.57
A56G A95G U139C | 1.43
A59G A78U A135G | 0.46
G58U A66G A95G U102A A117U | 0
A59G A64G A66G A78G A86U U108A A135G | 0.02
A60G A89G A135U | 1.84
A59U A64G A90G A92G | 0.65

Variant | self-cleavage
U57G A117G A134C | 0.9
U57A U70C A129U | 0.41
A59G A82U U87C A114U | 0.02
U57C A68C A86U | 1.91
A56G A69U U108A | 0.04
A59G A116G A140G | 0.69
A60U A69G A82C A111G | 0.02
U57C U87C A117U A125G | 0.16
A56U A60U U87A A90G U108A | 0.01
A59G A62G A68G A116G | 0.29
U57A A96G G137C | 1.71
U57A A60G U120G | 0.52
A59G G83U G138U | 0.61
A60U A91G A96G A116G | 0.37
A56G U72C A82G A94G A114G A116G | 0.25
A59G A82G U97C | 0.05
A59G A94G A118G | 1.09
A56G U122C A129U U132G G136U | 1.18
A59U A90G A114C U127C | 0.03
A56G U72C U102A A117G A140G | 0.08
A59G A64G A78C U87C | 0.18
A56G A69G U87C A116G | 0.22
A60U A62G U103C | 1.18
A60U A64G A82G A118G U122C U131C | 0.21

Variant | self-cleavage
U57C G93A C109A | 0.15
A59G C77U U100C | 2.21
A59G A92U A129U | 1.97
A60G A67U A95G | 2.14
U57C A68G U132C A134G | 1.21
U57A A82G C105U U132C | 0.04
A59U A66G U87A | 1.2
U57C A86G A118G | 0.83
A60G A69G U130C | 0.5
U57C A59G A117G | 1.2
A59G A60G A82G | 0.66
A59U A64G U102C A111G | 0.06
U57A A92G A117G | 0.16
U57A A59U C107A | 0.01
U57C A66G A92G | 1.35
U57A G75C A82U U120C | 0.11
A56U A60G A62U A89G A110G | 0.06
U57C A111G U127C | 0
A59G A69G G75A A140C | 0.13
A59G A118G A126G | 0.35
A60U U102A A111G | 0.01
A59U A96G A111G | 0.02
A60G U87C A111G | 0.05
A59G U103A C109U | 0.02

Variant | self-cleavage
U57C A89G G93U A110U U132C A140U | 0.35
A56G A78G U130A | 0.08
A59G U108G U131C | 0.02
A59G A66G C76U | 0.06
A59G A82U G106U C107U | 0
A56G U72G A90U A98G | 0.15
A59G A67G U124C A126G | 0.35
A59G A64U A117G | 1.79
U57A A118G U122C U124C | 0.57
A56G A78G A86G A91G A92G A110G A117G | 0.06
U57C G80U U108C | 0.02
C61U U122C U131C | 1.78
A56G A94G A118G | 1.17
A59G A98G A110G A111G | 0.02
A60G A64G G106U | 0.02
A59G A69G A96G A129U | 0.67
U57C A63G A126C | 1.14
A60U A68G U139C | 1.5
A59G A86G A125U | 0.62
A59G A62U A90U A110U | 1.01
U57C A67G A78G | 0.42
A59G A66C U120C | 0.7
U57C A67G U108A U122C | 0
